Experimental data as given in article PMC4336329 (PLoS ONE, 2015).
In all, about 310,000 compounds went through this assay and about 14,000 (4.5%) showed an effect of 50% or more. Effects have a minus sign here. The list shows a part of the results.

target: human ether-à-go-go-related gene (hERG) potassium channel (human, UniProt Q12809); experiment: primary screen, population patch clamp on CHO cells stably expressing hERG
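Also: peak tail current of the secondary pulse compared with the same well before compound.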

Chain of human ether-à-go-go-related gene (hERG) potassium channel (Q12809 whole entry, looked up): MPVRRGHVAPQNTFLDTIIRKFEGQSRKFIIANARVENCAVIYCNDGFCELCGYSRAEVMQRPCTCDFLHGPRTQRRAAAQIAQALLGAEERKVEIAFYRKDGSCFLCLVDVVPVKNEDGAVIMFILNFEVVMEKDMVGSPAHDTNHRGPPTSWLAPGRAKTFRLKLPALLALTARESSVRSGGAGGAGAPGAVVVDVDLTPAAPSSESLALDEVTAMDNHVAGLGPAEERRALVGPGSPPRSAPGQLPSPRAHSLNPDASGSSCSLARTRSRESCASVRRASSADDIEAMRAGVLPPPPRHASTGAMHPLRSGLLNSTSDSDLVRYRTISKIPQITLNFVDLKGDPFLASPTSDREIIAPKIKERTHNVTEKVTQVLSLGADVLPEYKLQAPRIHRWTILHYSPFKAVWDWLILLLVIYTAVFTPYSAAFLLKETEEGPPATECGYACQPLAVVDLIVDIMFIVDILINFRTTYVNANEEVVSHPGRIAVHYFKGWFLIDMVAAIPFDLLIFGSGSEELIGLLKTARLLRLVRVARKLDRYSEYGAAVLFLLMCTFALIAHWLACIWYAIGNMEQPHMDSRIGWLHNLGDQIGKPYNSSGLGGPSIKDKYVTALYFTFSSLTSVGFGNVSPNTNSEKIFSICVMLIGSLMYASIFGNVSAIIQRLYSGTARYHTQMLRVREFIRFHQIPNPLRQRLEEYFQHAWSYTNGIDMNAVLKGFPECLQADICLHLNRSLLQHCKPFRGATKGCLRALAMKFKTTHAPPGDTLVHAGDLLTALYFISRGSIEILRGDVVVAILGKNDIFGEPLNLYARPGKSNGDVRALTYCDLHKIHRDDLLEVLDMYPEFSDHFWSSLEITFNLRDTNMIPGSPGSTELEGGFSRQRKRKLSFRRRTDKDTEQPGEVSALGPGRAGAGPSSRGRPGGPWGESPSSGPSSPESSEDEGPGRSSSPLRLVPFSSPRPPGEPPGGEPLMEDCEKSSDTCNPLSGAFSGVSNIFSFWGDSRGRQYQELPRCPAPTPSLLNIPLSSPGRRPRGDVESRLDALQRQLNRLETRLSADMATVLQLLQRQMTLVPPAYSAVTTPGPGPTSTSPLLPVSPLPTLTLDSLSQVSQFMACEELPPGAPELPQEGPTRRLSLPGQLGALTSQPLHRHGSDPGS

| SMILES | hERG current change (%, negative = inhibition) at 10uM |
| --- | --- |
| CC/C=C\[C@H](O)[C@H](O)C1=C(C)C(=O)[C@]2(O1)C(=O)N[C@@](OC)(C(=O)c1ccccc1)C2O (some centres unmarked) | -6.87% |
| NC(=O)CC(NC(=O)Cc1cccc2ccccc12)c1ccc(NC2CCN(Cc3ccccc3)CC2)c([N+](=O)[O-])c1 (centres unmarked) | -2.54% |
| CC1CN(C(=O)COC(=O)c2cccc(NS(=O)(=O)c3ccccc3)c2)CC(C)O1 (centres unmarked) | -0.0601% |
| CC(C)(C)OC(=O)NCCCC[C@H](NC(=O)c1[nH]cnc1C(=O)Nc1ccc(CNC(=O)OC(C)(C)C)cc1)C(=O)OC(C)(C)C | 24% |
| O=C(CN1C(=O)S/C(=C\c2cccc(Cl)c2)C1=O)NC1C=CS(=O)(=O)C1 (centres unmarked) | 18.1% |
| CCOC(=O)c1c(C)[nH]c(C)c1C(=O)CSc1nc2ccccc2n1CCC#N | 8.67% |
| O=[n+]1c2c(n([O-])c3ccccc31)CCCC2 | 5.87% |
| CCCN1CCN(C(=O)Cn2cnc3ccc(S(=O)(=O)N4CCC(C)CC4)cc3c2=O)CC1 | -36.3% |
| Cc1cccc(NC(=O)CSCc2cc(=O)n3ccsc3n2)c1C | 13.3% |
| C/C=C(\C)C(=O)O[C@@H]([C@H](O)c1cc2ccc(=O)oc2cc1OC)C(C)(C)O | 11.6% |
| O=C(COc1ccc(-n2cnnn2)cc1)Nc1ccc(F)c(F)c1F | 5.48% |
| O=C(CN1CCN(c2ccccc2)CC1)c1c[nH]c2ccccc12 | -0.617% |
| Cc1cc(C(C)(C)C)ccc1NC(=O)CC(C)(C)CC(=O)O | 11.7% |
| COc1cc(NC(=O)Cc2nn(C)c(=O)c3ccccc23)cc(OC)c1 | 4.35% |
| CCCNc1cc(=S)nc(N)[nH]1 | 17.2% |
| Cc1ccc(C(=O)NC2(C(Cl)Cl)N=C(c3ccccc3)N=C2N)cc1 (centres unmarked) | 9.56% |
| Cc1cccc2nc(-c3cccnc3)c(NCCC(C)C)n12 | -20% |
| COc1ccc(-c2cc3nc4c(c(=O)n3[nH]2)CCC4)cc1 | 3.27% |
| CC(C)CN1C(=O)C(=O)N(CC(=O)Nc2cccc(Cl)c2Cl)C1=O | -3.9% |

| SMILES | hERG current change (%, negative = inhibition) at 10uM |
| --- | --- |
| Cc1c(O)ccc(C(=O)COc2ccc(F)cc2)c1O | 6.74% |
| COc1cc2c(cc1OC)C(C)N(S(=O)(=O)c1ccc(Cl)nc1)CC2 (centres unmarked) | -8.5% |
| CSc1nc2ccc3nc(NC(=O)c4cccs4)sc3c2s1 | -19% |
| O=C(CN1C(=O)c2ccccc2C1=O)OCC(=O)N1CCN(c2ccccc2)CC1 | -0.838% |
| O=C(Cn1cc2c(n1)CCCCC2)NC1CCCCCC1 | 0.992% |
| CC(=O)NCC12CC3CC(C1)CC(C(=O)O)(C3)C2 | 5.01% |
| CCOC(=O)C1(CC2CCCCO2)CCN(S(=O)(=O)c2cc(C)cs2)CC1 (centres unmarked) | -59% |
| Cc1cccc2c1NC(=O)C2(c1ccc(O)cc1)c1ccc(O)cc1 | 6.23% |
| CC(=O)Oc1ccc(N(C(C)=O)S(=O)(=O)c2ccc3ccccc3c2)cc1Br | 11.6% |
| O=C(Nc1ccc(Cl)c(Cl)c1)c1ccncc1 | -40.1% |
| CCCCN(C)C(=O)CCCCn1c(=O)[nH]c2cc(OCC)c(OCC)cc2c1=O | -1.7% |
| CCN(CC)c1ccc(C(=O)NNC(=O)CCNC(=O)c2ccccc2)cc1 | -15.3% |
| Cc1ccc(/C=C2/SC(=S)N(CCC(=O)NCCCN3CCOCC3)C2=O)cc1 | -8.68% |
| c1ccc2c(c1)CCCn1nnnc1-2 | 5.33% |
| COc1ccc(CCNC(=O)C2CCCCC2C(=O)O)cc1OC (centres unmarked) | -2.9% |
| CN1CCN(c2nc(-c3ccccn3)nc3ccccc23)CC1 | -51.4% |
| CCCn1nc([N+](=O)[O-])c(C(C#N)c2nc3ccccc3s2)c(Cl)c1=O (centres unmarked) | 18.4% |
| O=C(NCCN1CCOCC1)c1ccc2c(c1)N(Cc1ccccc1F)C(=O)CS2 | -8.97% |
| COc1cccc(CNC(=O)c2ccc3c(c2)S(=O)(=O)N=C2CCCCCN23)c1 | -0.139% |

| SMILES | hERG current change (%, negative = inhibition) at 10uM |
| --- | --- |
| Cc1nn(C)c(C)c1NS(=O)(=O)c1cccc(Br)c1 | 18.3% |
| COc1ccc(NC(=O)c2c(NC(=O)CCC(=O)O)sc3c2CCCCC3)cc1 | 23.8% |
| Cc1cc(O)c(C(C[N+](=O)[O-])c2ccc(Cl)cc2Cl)c(=O)o1 (centres unmarked) | 6.51% |
| O=C(/C=C/c1ccc(Cl)c([N+](=O)[O-])c1)Nc1cccc(NC(=O)c2ccco2)c1 | 2.38% |
| CSc1ccccc1NC(=O)CN1CC(C)OC(C)C1 (centres unmarked) | -3.75% |
| Cc1ccc(C(CCNC(C)c2cccs2)c2ccco2)cc1 (centres unmarked) | -57.1% |
| O=C(N/N=C/c1c(Cl)cccc1Cl)c1ccc(F)cc1 | -3.1% |
| CCOC(=O)C1=C(C)OC(N)=C(C#N)C12C(=O)N(C)c1ccccc12 (centres unmarked) | 15.2% |
| CC(NC(=O)CC1SC(N)=NC1=O)c1ccccc1 (centres unmarked) | 18.6% |
| Cc1ccc(S(=O)(=O)NCCc2ccccc2)cc1 | 3.3% |
| CCCC(C)(COC(N)=O)COC(=O)NC(C)C (centres unmarked) | 0.849% |
| CC1(C)CC(=O)C=C(NNC(=O)c2ccccc2)C1 | 22.6% |
| Cc1cccc(OCc2nnc(NC(=O)Cc3cccs3)s2)c1 | 13.6% |
| CCC/C=N/NC(=O)c1ccc(F)cc1 | 8.78% |
| CN(C)S(=O)(=O)c1cccc(COC(=O)c2cc([N+](=O)[O-])ccc2N2CCOCC2)c1 | -52.7% |
| Cc1cc(=O)cc(C)n1-c1ccc(O)cc1 | 26.1% |
| CCn1nc(C)c(CNC(=O)C2CCC(=O)N(CCc3ccc(OC)cc3)C2)c1C (centres unmarked) | 11.6% |
| CNC(=O)CSc1nnc(-c2ccc(S(=O)(=O)N3CCCC3)cc2)n1-c1cccc(C)c1C | -7.16% |
